Sequences with one replicate were seen in a single cluster, so their values are uncertain.
System: ATP
Assay: switch fluorescence ratio, 500 uM ATP over buffer (Cy3 cluster intensity, sum of 5 cycles each) (fold (ratio)); higher = stronger signal-on switching upon ATP binding; sequences stand for … in TCGTCGGCAGCGTCAGATGTGTATAAGAGACAGTTTTTTTTTTTTTTTTTTTTTTTTT…TC
Settings: aptamer strand: ATP DNA aptamer (quencher-CACCTGGGGGAGTATTGCGGAGGAAGG + anchor), 100 nM annealed; ATP concentration: 500 uM; one replicate
Summary of the method: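 Imaging in selection buffer was followed by imaging after 15 min with 500 uM ATP at 22 °C, for Cy3-labelled switching-strand clusters annealed to 100 nM quencher-labelled ATP aptamer on a modified Illumina MiSeq flow-cell. Five of these buffer/ATP cycles ran, separated by NaOH stripping and re-annealing. The fluorescence ratio per cluster is summed target-cycle over summed buffer-cycle Cy3 intensity, averaged per switch-domain sequence; clusters outside 100-1000 RFU were removed.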
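Also: ATP exposure 15 min at 22 °C before imaging.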

Sequence | switch fluorescence ratio
GATCCTCGAG | 1.05
TGATACCCA | 1.04
TCGTGGGCTG | 0.96
TTGCGTTGAG | 1
CGCCCTATGT | 1.04
TACCTCGGGG | 0.953
ATCTAGTATG | 0.994
GGGGAGTCTG | 0.984
TGCCCAGTTA | 1.01
TGTAATTCGA | 0.991
CACCGGGTCA | 1.03
AAGTCACTTA | 1.06
ATAACAGCAG | 0.988
TTTGTGAGA | 1.02
TCGTTTCTGC | 1.08
CATAGGGCGA | 0.993
GAATGTGCGG | 1.01
TTCGATTTCG | 1.02
TGTTTCTAC | 0.97
AACAGTCATT | 0.991
AGCGTGGGTC | 1.05
TACGAGACCA | 1.04
AACCTCGGCA | 1.82
TGGATTCGAT | 0.989
CCCTTACAGT | 1.03
CTGGGATAAG | 1

Sequence | switch fluorescence ratio
TTACACACGT | 1.44
TGGGCTTAAA | 0.988
GCGAGAAGGA | 1.05
TCCCACTGGA | 1.12
TGCACGAGTA | 0.993
ATGAGTCTAT | 0.992
GATTATAGAC | 1.01
CACCCCCGCA | 2.05
AAGTCCAATA | 1.05
CGTGTGACAC | 1.03
TGGTCTACGA | 0.999
TATTAGTACG | 0.976
CACCATTAAA | 1.03
TTTGGCGCCT | 0.93
GAGATCTGTA | 0.983
CGGGTCCCAT | 0.996
GGCGCGTTAT | 0.976
ATCTCGACTG | 1.05
GTCCGGTGAT | 0.995
TTTGCGCATC | 2.33
TTCATGAGCG | 1.04
ACCTTTATAG | 0.992
GGGGTGCGGC | 0.949
TACTAGTATT | 1
TACTGGCGGA | 1
CCTTGTCGTA | 0.998

Sequence | switch fluorescence ratio
GAGGAGGACC | 1.08
GTTGTAAGAA | 1.01
ACAATGCGGA | 1.07
ATTGAGACGG | 0.998
CCGTCATTTG | 1.09
GCCCGGGGTC | 1.02
ATGTTTTGCA | 1
TACGTGGTTA | 1.02
TGATCAGCAG | 1.02
AACCTAGGTC | 1.02
AATGAGAGTA | 0.976
TGATTCACGT | 1.01
GCTCGGGCTA | 0.986
TTATGGGTAC | 1.01
TGCGCCGGTG | 1.01
CAGTTCAGGT | 1.01
AGGGCTTATA | 0.97
ATTGACTTAG | 1.03
TATGATAACG | 0.999
ACTGGACATG | 1.09
CTGTTTTCGG | 0.991
GAGCGTTGAT | 1.05
GCCCGTAATA | 5.32
GGCGTTCCAG | 0.984
GATATTACCA | 1.05
GGGAGCCAAA | 0.967

Sequence | switch fluorescence ratio
CCAGCGGCGA | 1.12
AGTGCCGCTC | 1.02
TGGTTTTGCA | 1.03
CTGAATAGGC | 1.08
ACCGAAGTA | 1.02
TGAATCGAAC | 1.07
AATTTTGGCC | 0.969
TCAAGCATGT | 1.01
CACTGTGCTG | 0.973
TTATATCCTT | 0.992
AGGGTGACGC | 1
CTCTGGCGGC | 1.14
TATGTTCCAT | 1.01
AGGTTACTGG | 1
TTCGATTTTG | 1.01
TAGCAACAAG | 1.01
TTCCATACTC | 1.28
TCCGGGGTGA | 2.25
CCGTAGGCAA | 4.62
TAAAATGTCG | 0.957
GTGCTCCTTG | 1
TCACGAAAAG | 0.996
GAACTCCTGG | 1.02
GTTTTGTTGC | 0.993
AGAGTACCGG | 0.934
TTACGCCGA | 1.02

Sequence | switch fluorescence ratio
ATGAGAACCA | 0.996
GCTACCGTTG | 1.05
GATGTAAAGT | 1.02
TCTGAGGCAC | 1.17
TAATGCTTTC | 1.02
CACAGTTGTC | 0.925
ACCGGGGCGT | 1.02
CTAGATTGAC | 1.03
CAAGATGTGA | 0.958
TTGGTAACGG | 1.04
ATACCGGTGA | 1.03
TTTTCAACGA | 1.02
TATCCTTGTA | 1.05
CTTATATAAC | 1
TAACGCTAAG | 1.03
CGGGTAGTGA | 1.09
CTTGGCCTGC | 0.982
AGTGGCCTC | 1
AGCCTAGGTA | 0.988
AGAAGTTCGG | 1.05
AGTTTGAA | 1.03
GAACTATAGG | 1.05
GTCATGTAC | 1.2
TTGCCGCAAC | 4.58
TTCCTTACCT | 1.24
CCAAACAGGG | 1

Sequence | switch fluorescence ratio
GTAATTCTGC | 0.999
GCTCAGACGC | 1.1
CTCCTCTATG | 1.17
CGCTTGCTTT | 1.01
CCTACAATAG | 4.45
GAGGACGTCA | 0.956
AACACACAT | 1.25
CCTTTGGG | 1.02
CCAGCTTTCT | 1.03
CCGGGGTCAG | 1.04
GGTTTTCAGA | 0.993
ACTTCGTAAA | 0.997
CACCGGATGG | 1.02
GTTTCCTCTC | 1.01
AGAATCGTGT | 1.04
GTATAGTGTG | 0.978
TATCTCAGTC | 0.957
TCGTATGGAC | 1.04
GCATGCAATC | 1.1
TCTGAGTCAT | 1.02
TTAAACTGCT | 0.976
ATTCGGGGA | 0.955
GTCCTCCGGG | 1.99
TACTCTGGAG | 0.997
GAGTACGATG | 0.992
TACGGGGGC | 1.01

Sequence | switch fluorescence ratio
GTACGCAGGC | 2.7
CGGGGAGTTC | 0.977
CGTAAGTTTA | 1.04
GGGTACGCGT | 0.934
CTAAGACCGT | 1.01
GCTCACAGCG | 0.994
GAAGGTGACG | 1.09
CTGGGGGCTA | 1
GATGGGATAG | 1.04
TCCGGTTT | 0.972
TTGTGGCGGG | 0.974
CCTCACGGCG | 1.17
CTTAATATGC | 1
ACGTGTCGCC | 0.953
TTATTTTCG | 0.958
GGTAAGAGTG | 0.98
CATAGGAATC | 1.08
GCGGCGCGAA | 0.962
CAAGGGTCTC | 0.99
TGTAGGGAGA | 0.947
GACAGGGGAT | 1.06
AGTTTTAATG | 0.985
ACTTGGGTAC | 3.4
CATTTCGTGC | 0.986
AGCGTACTGT | 1.14
CCAAGAGTAC | 0.992

Sequence | switch fluorescence ratio
GTCAACATGT | 1.02
GAAGAGCGA | 1.01
TCGTTGCCCT | 1.07
CTCGGACAGC | 1.02
AGTAAGCCTG | 1.16
ATGTAGGACT | 0.979
TCACCAGATC | 1.04
ACGTCGTCAA | 1.29
TCCATCTCTC | 1.01
ATAGTCTGA | 0.984
ATGCGTGGGA | 0.989
TTAATTCT | 1.01
CTGTAAGATT | 0.96
ATAAGATCTT | 0.996
CCAGTTAGGT | 1.09
ATTAAATTAC | 1.36
GTTTTAT | 1.02
TAGGCCTCGG | 1.01
CGGAGGCCGG | 1.11

— the supplement of paper PMC10126150
